Results: PMC6919601, “Identification of Plasmodium dipeptidyl aminopeptidase allosteric inhibitors by high throughput screening” (PLoS ONE, 2019)
The campaign covered roughly 110,000 compounds. About 230 (0.21%) showed an effect of 50% or more. This is one part of the list.

Molecular target: DPAP1 (Plasmodium falciparum, UniProt Q8IIJ9)
Assay: primary screen, percent inhibition; read by cleavage of a fluorogenic dipeptide substrate; higher = more effect of the substance
Set-up: species or system P. falciparum D10 trophozoite lysates; single well
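Also: 30 min substrate incubation versus DMSO and 10 µM JCP410 controls.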

Chain of DPAP1 (Q8IIJ9 whole entry, looked up): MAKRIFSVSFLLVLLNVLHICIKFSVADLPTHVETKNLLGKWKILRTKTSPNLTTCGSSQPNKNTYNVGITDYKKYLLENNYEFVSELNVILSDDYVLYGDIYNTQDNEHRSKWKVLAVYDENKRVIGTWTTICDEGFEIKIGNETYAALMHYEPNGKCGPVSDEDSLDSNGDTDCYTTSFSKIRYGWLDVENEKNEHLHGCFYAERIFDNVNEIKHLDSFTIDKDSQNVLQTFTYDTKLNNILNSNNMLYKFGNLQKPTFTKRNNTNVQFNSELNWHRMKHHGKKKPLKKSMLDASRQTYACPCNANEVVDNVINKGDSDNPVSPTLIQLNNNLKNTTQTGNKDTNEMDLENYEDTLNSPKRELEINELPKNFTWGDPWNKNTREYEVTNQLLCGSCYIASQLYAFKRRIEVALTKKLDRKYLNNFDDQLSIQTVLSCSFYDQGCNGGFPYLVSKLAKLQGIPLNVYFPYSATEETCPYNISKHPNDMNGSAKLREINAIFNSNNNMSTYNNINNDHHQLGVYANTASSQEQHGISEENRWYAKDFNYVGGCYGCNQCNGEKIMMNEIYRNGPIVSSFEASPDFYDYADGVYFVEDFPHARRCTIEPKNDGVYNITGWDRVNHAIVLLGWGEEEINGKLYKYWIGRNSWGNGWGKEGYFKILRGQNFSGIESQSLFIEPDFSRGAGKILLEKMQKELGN

Row | Compound | % Inhibition @ 10 uM
1 | COC(=O)c1cc(=O)n(Cc2ccc(F)cc2)/c(=N/Cc2ccc(F)cc2)s1 | -11.1%
2 | CC1=C(C#N)C(c2ccccc2F)C2=C(O)CCCC2=N1 (centres unmarked) | 1.4%
3 | COc1cc(/C=C2/C(=N)N3OC(C)=CC3=NC2=O)ccc1OCc1ccccc1 | 0.317%
4 | NC(=O)C1CCN(C(=O)NCc2noc3ccccc23)CC1 | 3.02%
5 | O=C(NC1CC1)c1ccc2c(c1)nc(S)n1c3ccccc3nc21 | 0.23%
6 | COc1ccc(CNC(=O)CSc2nc(-c3ccc4c(c3)OCO4)ccc2C#N)cc1OC | 0.82%
7 | O=C(CN1CCCCC1)Nc1ccc(C2CCCC2)cc1 | -0.519%
8 | CC(c1ccccc1)N1CCc2nc(S)nc(O)c2C1 (centres unmarked) | -8.51%
9 | N#Cc1c(-c2ccc3c(c2)OCO3)csc1N | 1.21%
10 | CCc1ccc2c(c1)[C@H]1OCC[C@H]1[C@@H](c1cccs1)N2 | -6.02%
11 | CC(C)CCNc1nnnc2c1sc1nc(N3CCOCC3)c3c(c12)CCCC3 | 2.95%
12 | O=C(Cn1cc(S(=O)(=O)Cc2ccccc2F)c2ccccc21)NCc1ccco1 | -1.07%
13 | O=C(Nc1cccc2cccnc12)c1cccs1 | -0.902%
14 | O=C(Cc1ccccc1)N1CCC(c2nc(-c3ccc(S(=O)(=O)N4CCCC4)cc3)no2)CC1 | 2.05%
15 | COc1cc(OC)cc(C(=O)Nc2ccc(C)cc2Br)c1 | 1.28%
16 | COc1ccc(OC)c(NC(=O)COc2ccc3ccccc3c2Br)c1 | -4.43%
17 | COc1ccc(CCNC(=O)C2CCCN2S(=O)(=O)c2cccc3nsnc23)cc1OC (centres unmarked) | -0.685%
18 | Cc1c(/C=N/n2nnnc2N)c(O)n2c(nc3ccccc32)c1C#N | -4.93%
19 | N#CC1=C(N)N(c2nc[nH]n2)C2=C(C(=O)CCC2)C1c1cccc(Br)c1 (centres unmarked) | -5.63%
20 | CCCOc1ccc(N2C(=O)CC(NCc3ccc4c(c3)OCO4)C2=O)cc1 (centres unmarked) | -4.72%
21 | COc1ccccc1NC(=O)Cn1cnc2c1c(=O)n(C)c(=O)n2C | 0.147%

Row | Compound | % Inhibition @ 10 uM
22 | O=c1c2c([nH]c(=S)n1-c1ccccc1)-c1ccccc1CC21CCCCC1 | 4.98%
23 | CNC(=O)C1=C(C)N=C(S)NC1c1ccc(OC)c2ccccc12 (centres unmarked) | -3.37%
24 | COc1ccc(OC)c(N(CC(=O)Nc2ccccc2-c2ccccc2)S(C)(=O)=O)c1 | -4.43%
25 | Cc1nc(NC(=O)c2cc3ccccc3o2)ccc1Br | 4.61%
26 | CC[C@H](NC(=O)C(CC(C)CC(C)(C)C)NC(=O)OCc1ccccc1)C(=O)c1nc2ccccc2o1 (some centres unmarked) | 0.174%
27 | CCC(NC(=O)c1cc(C)nc2c1c(C)nn2-c1ccc(C)cc1)c1cccs1 (centres unmarked) | -3.1%
28 | COCCCNC(=O)C1CCN(c2ccc(N3CCOCC3)nn2)CC1 | -1.3%
29 | N#CCCNc1cc2ccccc2cc1C(=O)O | 7.13%
30 | CCOC(=O)N1CCN(S(=O)(=O)N2CCCC(C(=O)NCCN3CCOCC3)C2)CC1 (centres unmarked) | 2.05%
31 | O=C(c1ccccc1Cl)N1CCN(c2cccc(Cl)c2)CC1 | 3.85%
32 | CC(=O)N(C)c1ccc(NC(=O)c2ccc(C(=O)Nc3ccc(N(C)C(C)=O)cc3)cc2)cc1 | 4.25%
33 | CCOc1ccc(/C=c2/[nH]c(=O)/c(=C\c3ccc(OCC)cc3)[nH]c2=O)cc1 | -4.26%
34 | CC1CCCCN1C(=O)C1c2ccccc2Oc2ccccc21 (centres unmarked) | 8.07%
35 | CCCc1noc2c1-c1onc(O)c1C(C)(C)C2 | 0.774%
36 | Cc1ccsc1CN1CCN(c2cccc(C(F)(F)F)c2)CC1 | -0.0404%
37 | O=C(NC1CCS(=O)(=O)C1)NC1CCS(=O)(=O)C1 (centres unmarked) | -9.83%
38 | Cn1c2c(c(=O)n(C)c1=O)C1(C(=O)Nc3ccccc31)C(C#N)=C(N)O2 (centres unmarked) | -3.9%
39 | Cc1ccc(N2C(=O)NC(=O)/C(=C/Nc3ccc(C(=O)O)cc3)C2=O)cc1 | -4.41%
40 | Cc1c(Cl)ccc2c(N=Nc3ccccn3)c(O)[nH]c12 | 0.884%
41 | O=S(=O)(NCC(c1ccccc1)C1CCCCC1)c1ccc2c(c1)OCCO2 (centres unmarked) | -3.75%
42 | COc1ccc(Cl)cc1S(=O)(=O)n1ccnc1C(C)C | 12.3%

Row | Compound | % Inhibition @ 10 uM
43 | COc1ccc(N2CCN(Cc3ccccc3[N+](=O)[O-])CC2)cc1 | -3.65%
44 | COc1ccc(Sc2nc3ccccc3n3c(C)nnc23)cc1 | 0.454%
45 | Cc1ccc(-c2nnn(CC(=O)N(CC(=O)NCCC(C)C)c3cnc4ccccc4c3)n2)cc1 | -4.82%
46 | O=C(O)c1[nH]c2ccccc2c1CNCc1ccc(F)cc1 | 3.54%
47 | Cc1ccc2nc3c(cc(C(=O)NCC4CCCO4)c(=N)n3CCc3ccccc3)c(=O)n2c1 (centres unmarked) | 0.279%
48 | O=C(c1ccc(-n2cnc3cccnc32)cc1)N1CCOCC1 | -1.48%
49 | CCOCCCNC(=O)c1c(NC(=O)c2nc(SCC)ncc2Cl)sc2c1CCC2 | -1.11%
50 | Cc1ccc(-c2cn(-c3ccc(Cl)cc3)c(=O)s2)cc1 | -1.96%
51 | CC(C)C(NS(=O)(=O)c1cccs1)C(=O)NCCc1ccc(Cl)cc1 (centres unmarked) | 5.7%
52 | CC(C)C[C@H](NC(=O)OC1Cc2ccccc2C1)C(=O)NCC#N | -4.72%
53 | NS(=O)(=O)c1cccc(NC(=O)c2cccc3c(Br)cccc23)c1 | 2.22%
54 | CCOC(=O)c1c(NC(=O)/C(C#N)=C/c2ccccc2)sc2c1CCC(C)C2 (centres unmarked) | 0.611%
55 | CCOC(=O)c1c(NC(=O)CSc2n[nH]c(-c3ccco3)n2)sc2c1CCCC2 | -3.34%
56 | Cc1cc(NC(=O)CSc2nc(-c3ccc(F)cc3)cc(C(F)(F)F)n2)no1 | 1.39%
57 | Cc1ccc2nc3c(cc(C#N)c(=O)n3CCN3CCOCC3)c(=O)n2c1 | -4.07%
58 | Cc1[nH]c2ccccc2c1C(=O)/C=C/C(=O)O | -2.51%
59 | COC(=O)c1ccc(C2C(C#N)=C(N)Oc3[nH]nc(-c4cccs4)c32)cc1 (centres unmarked) | -4.91%
60 | CC1=C(C(=O)OC2CCCC2)C(c2cccc(F)c2)C2=C(O)CC(C)(C)CC2=N1 (centres unmarked) | -8.61%
61 | COCC(C)NCc1ccc2ccccc2c1 (centres unmarked) | 3.44%
62 | CCOC(=O)c1sc2nc(C)cc(C)c2c1-n1cccc1 | 2.7%
